Assay results: PMC4336329 (PLoS ONE, 2015)
Hit rate of the full screen: of about 310,000 compounds, about 14,000 (4.5%) showed an effect of 50% or more. Effects have a minus sign here. This is one part of the list.

target: human ether-à-go-go-related gene (hERG) potassium channel (human, UniProt Q12809); experiment: primary screen, population patch clamp on CHO cells stably expressing hERG
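Also: peak tail current of the secondary pulse compared with the same well before compound.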

human ether-à-go-go-related gene (hERG) potassium channel, sequence (Q12809 whole entry, looked up): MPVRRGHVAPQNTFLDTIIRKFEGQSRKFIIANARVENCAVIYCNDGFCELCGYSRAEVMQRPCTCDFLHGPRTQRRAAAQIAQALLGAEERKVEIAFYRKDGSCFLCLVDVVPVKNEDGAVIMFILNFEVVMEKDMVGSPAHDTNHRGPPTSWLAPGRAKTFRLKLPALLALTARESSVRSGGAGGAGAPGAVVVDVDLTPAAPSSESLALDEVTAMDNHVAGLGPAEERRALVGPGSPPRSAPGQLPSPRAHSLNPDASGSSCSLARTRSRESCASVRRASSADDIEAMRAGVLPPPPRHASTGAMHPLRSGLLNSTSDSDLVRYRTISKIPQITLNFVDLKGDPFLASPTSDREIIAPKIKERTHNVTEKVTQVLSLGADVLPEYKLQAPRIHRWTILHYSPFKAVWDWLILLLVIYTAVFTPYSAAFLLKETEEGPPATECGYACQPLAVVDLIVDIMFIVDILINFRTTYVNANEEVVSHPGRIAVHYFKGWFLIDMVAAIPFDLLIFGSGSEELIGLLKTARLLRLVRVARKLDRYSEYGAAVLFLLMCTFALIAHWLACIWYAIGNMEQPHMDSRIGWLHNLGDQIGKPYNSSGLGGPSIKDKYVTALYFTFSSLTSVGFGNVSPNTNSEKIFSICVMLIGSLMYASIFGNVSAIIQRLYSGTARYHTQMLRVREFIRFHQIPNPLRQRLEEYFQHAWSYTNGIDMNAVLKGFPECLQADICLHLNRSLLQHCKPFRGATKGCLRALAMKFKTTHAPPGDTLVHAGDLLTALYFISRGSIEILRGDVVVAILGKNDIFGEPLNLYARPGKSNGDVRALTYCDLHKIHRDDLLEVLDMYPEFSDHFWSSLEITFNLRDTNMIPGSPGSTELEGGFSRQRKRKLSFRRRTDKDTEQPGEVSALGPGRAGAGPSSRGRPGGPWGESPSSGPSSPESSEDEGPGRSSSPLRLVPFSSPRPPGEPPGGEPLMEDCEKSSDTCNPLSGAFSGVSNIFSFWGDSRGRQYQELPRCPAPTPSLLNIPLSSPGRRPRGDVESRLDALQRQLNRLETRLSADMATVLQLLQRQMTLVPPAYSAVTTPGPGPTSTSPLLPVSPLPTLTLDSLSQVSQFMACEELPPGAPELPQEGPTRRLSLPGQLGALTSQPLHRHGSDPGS

SMILES | hERG current change (%, negative = inhibition) at 10uM
COc1ccc(C(=O)Oc2ccc[nH]c2=O)cc1 | 12.5%
CNC(=O)COC(=O)/C=C/c1c(C)nn(-c2ccccc2)c1C | -3.71%
COc1ccc(S(=O)(=O)N2CCOCC2)cc1NC(=O)CSc1cccc[n+]1[O-] | -3%
Cc1cc(C)nc(SC(C)C(=O)Nc2ccc(S(N)(=O)=O)cc2)n1 (centres unmarked) | -2.33%
O=C(Nc1ccc2sc3ccccc3c(=O)c2c1)c1ccccc1Cl | -5.74%
O=C(c1csc(Nc2ccccc2Cl)n1)N1CCCC1 | -20.4%
O=S(=O)(c1ccc(Cl)cc1)N1CCCC1c1nc(-c2ccc(Cl)cc2)no1 (centres unmarked) | 18.9%
NC1=NC[C@H](Cc2ccccc2)N1CCc1cc(C(F)(F)F)cc(C(F)(F)F)c1 | -3.82%
Cc1c(NC(=O)c2cc(-c3ccc(F)cc3)on2)c(=O)n(-c2ccccc2)n1C | -9.68%
O=C(CCN1C(=O)/C(=C/C=C/c2ccccc2)SC1=S)Nc1nccs1 | 0.13%
O=C(N/N=C/c1ccc([N+](=O)[O-])cc1)c1cccnc1 | 0.658%
CCOC(=O)c1[nH]c2ccc(Br)cc2c1NC(=O)CCN1CCN(C(=O)OCC)CC1 | -44%
COCCCNC(=S)N/N=C/c1cccc(OC)c1O | 14.6%
CCc1cccc2[nH]c3cc([N+](=O)[O-])ccc3c12 | 7.79%
C=CCNc1nc(Cl)nc(Nc2cc(Cl)ccc2OC)n1 | 17.7%
CC(C)OP(=O)(OC(C)C)C(NC(=O)c1cccc([N+](=O)[O-])c1)C(N)=O (centres unmarked) | 4.87%
CCC1SC2=NC(C)=C(C(=O)OCC(C)C)C(/C=C/c3ccccc3OC)N2C1=O (centres unmarked) | -13.8%
CC(C)n1cc(-c2nc(C(=O)NN)cs2)c(=O)n(Cc2ccccc2)c1=O | 0.862%
CCN1CCCC1CNC(=O)c1csc2c1CCCC2 (centres unmarked) | -38.9%
Cc1ccc2[nH]c3nc(N/N=C/c4cccc(O)c4)nnc3c2c1 | 24.1%
Cc1cccc(-n2c(O)c(/C=N/NC(=O)c3ccncc3)c(=O)[nH]c2=O)c1 | 13.5%
CC(C(=O)N1CCOCCOCCOCCOCCOCC1)N1C(=O)c2ccccc2C1=O (centres unmarked) | 24%

SMILES | hERG current change (%, negative = inhibition) at 10uM
Cc1ccc(N2C(=O)N(CC(=O)Nc3cccc(C)c3C)C(=O)C2C)cc1 (centres unmarked) | -11.8%
O=C(/C=C/c1ccccc1)Nc1cccnc1Cl | 17.6%
CCc1nnc(NC(=O)c2ccc3c(c2)C(=O)N(C(C)(C)C)C3=O)s1 | 7.02%
COc1ccc(C2C(C(=O)Nc3ccc4c(c3)OCCO4)c3ccccc3C(=O)N2C)cc1 (centres unmarked) | 13.3%
O=[N+]([O-])c1cc(-c2nnc(Nc3ccc(O)cc3)c3ccccc23)ccc1N1CCOCC1 | -0.242%
Cc1ccc(CS(=O)(=O)CCC(=O)NC2CC2)cc1 | 1.77%
COc1cc(-c2nnn(CC(=O)NCc3ccccc3)n2)cc(OC)c1OC | -3.93%
CCCCNC(=O)[C@@H]1CC=C[C@@H]2CCN(Cc3ccc(Cl)c(Cl)c3)C(=O)[C@@H]21 | -29.4%
Nc1ccc(-c2nc3ccc(N)cc3o2)cc1 | 12.6%
Cc1cc(NC(=O)CCC(=O)N(CC(=O)NCC2CCCO2)c2ccc(C(C)C)cc2)no1 (centres unmarked) | 2.63%
O=C(Cn1nnc2ccccc2c1=O)NCCc1ccccc1 | -15.2%
O=C(Nc1cccc(Br)c1)c1cc(=O)c2ccccc2o1 | 19.4%
CN(C)CCNC(=O)/C=C/c1cn(-c2ccccc2)nc1-c1cc2ccccc2oc1=O | 13%
CCn1c(SCC(=O)NCc2ccc(F)cc2)nc2c(c1=O)SC(C)C2 (centres unmarked) | -49.3%
COc1ccc(N=C2S/C(=C\c3cc(C)n(C)c3C)C(=O)N2CC(C)C)cc1 | 2.55%
Cn1nc(C(F)(F)F)c(C(=O)Nc2ccc(F)cc2F)c1Sc1ccc(Cl)cc1 | -4.91%
CCC(C(=O)Oc1c(C(C)C)cccc1C(C)C)c1ccccc1 (centres unmarked) | -3.84%
O=C(Nc1nnc(-c2ccc(F)cc2)s1)Nc1ccccc1F | 14.1%
Cc1ccc(S(=O)(=O)N(C)C)cc1NC(=S)N1CCN(Cc2ccc3c(c2)OCO3)CC1 | -7.52%
CC1CCCC(C)N1S(=O)(=O)c1ccc(NC(=O)c2ccccc2C(=O)N2CCOCC2)cc1 (centres unmarked) | -3.57%
CCc1nnc(NS(=O)(=O)c2ccc(NC(=O)c3cccc(OC(F)(F)C(F)F)c3)cc2)s1 | -6.51%
CCOC(=O)COn1c(-c2cccc(Cl)c2)nc2ccc([N+](=O)[O-])cc21 | 7.63%

SMILES | hERG current change (%, negative = inhibition) at 10uM
COc1cccc(-c2csc(NC(=O)Nc3ccccc3)n2)c1 | 22.6%
O=C(Nc1ccccc1)N1CCCN(c2c(Cl)cncc2Cl)CC1 | -14.2%
COc1cc2nc(CC(C)C)n(NC(=O)c3ccccc3)c(=O)c2cc1OC | 9.36%
O=C(Nc1ccccc1)c1ccc(S(=O)(=O)NCc2cccnc2)cc1 | 16%
Cc1ccsc1C(=O)OCc1cc(=O)n2ccsc2n1 | -7.96%
CC(=O)N(Cc1cccs1)C1CCOC(C)(C)C1 (centres unmarked) | 7.75%
COc1ccc(NC(=O)CSc2nnc(-c3ccc(F)cc3)o2)cn1 | -17.4%
c1cc2c(cc1Nc1nc(-c3ccc4c(c3)OCO4)cs1)OCCO2 | 12.7%
COc1cccc2cc(C(=O)N(Cc3ccccc3)CC3CCCO3)c(=O)oc12 (centres unmarked) | -5.9%
O=C(CSc1nnc(-c2ccncc2)n1-c1ccccc1Cl)Nc1ccc(C(=O)O)cc1 | 17%
COc1ccccc1-c1csc(NC(=O)c2ccc(N3C(=O)CCC3=O)cc2)n1 | 7.17%
COC(=O)Cn1c2c(c3cc(C)ccc31)CCCC2NC(C)c1ccccc1 (centres unmarked) | -26.2%
O=C(c1cc(COc2cccc3cnccc23)on1)N1CCC(c2ccccc2Cl)C1 (centres unmarked) | 16%
COc1ccc(C2C(C(=O)Nc3cc(OC)c(OC)c(OC)c3)c3ccccc3C(=O)N2C)cc1 (centres unmarked) | 6.78%
Cc1csc(NC(=O)CCCSc2nc3ccccc3s2)n1 | -35.1%
COc1ccc(OC)c2sc(NC(=O)CCSc3ccccc3)nc12 | 12.8%
Cc1ccc(N(CC(=O)N/N=C/c2ccc(OC3CSC3)cc2)S(=O)(=O)c2ccccc2)c(C)c1 | -0.595%
O=C1COc2ccccc2N1Cc1c(F)cccc1Cl | -22.3%
O=C(CCl)Nc1cccc(Oc2ccccc2)c1 | -22.4%
ClC(Cl)(Cl)c1nc2ccccc2n2nncc12 | 19.6%
Cc1ccc(S(=O)(=O)C(NC(=O)c2ccccc2)=C(Cl)Cl)cc1 | 8.78%
N#Cc1nc(COc2ccc(F)cc2)oc1NCCN1CCOCC1 | -12.9%

SMILES | hERG current change (%, negative = inhibition) at 10uM
CC1CCCCN1CC(=O)NC(c1ccccc1)c1ccccc1.O=C(O)C(=O)O (centres unmarked) | -65.8%
COc1ccc(Cn2nnnc2C(C(C)C)N(Cc2ccco2)Cc2cccs2)cc1 (centres unmarked) | 6.54%
CN(CC(=O)NCc1ccc2c(c1)OCO2)S(=O)(=O)c1ccc(F)cc1 | -8.53%
Cc1nc(N2CCc3ccccc3C2)[nH]c(=O)c1Cc1ccccc1 | 9.21%
CCC(=O)N1CCc2cc(Br)cc(S(=O)(=O)CCC(=O)N(CC)CC)c21 | 27.3%
CC(C)CN(C(=O)CN1CCN(c2cccc(Cl)c2)CC1)c1c(N)n(CC(C)C)c(=O)[nH]c1=O | 16%
Cc1cc(C)nc(N2C(=O)CC(Cc3ccccc3)C2=O)n1 (centres unmarked) | 12.7%
Cc1ccsc1-c1nc(CN2CCCC2c2ccc(F)cc2)c(C)o1 (centres unmarked) | 24.9%
CC1CCCCN1Cc1nc2c(c(=O)n(C)c(=O)n2C)n1Cc1c(F)cccc1Cl (centres unmarked) | -12.5%
O=[N+]([O-])c1ccc(Cl)c([N+](=O)[O-])c1 | -3.52%
CC1=NN(C(=O)c2cccnc2)C(O)(C(F)(F)F)C1 (centres unmarked) | 4.35%
CC(C)Oc1ccc(NC(=O)c2ccncc2)cc1 | 10.9%
Nc1nc(NCC2CCCO2)nc(Nc2ccccc2F)c1[N+](=O)[O-] (centres unmarked) | 25.5%
Cc1cccc(Cn2c(=O)c3c(nc4n3CCN4Cc3ccco3)n(C)c2=O)c1 | -52.2%
COc1ccc(CCNC(=O)c2ccc(CS(=O)(=O)Cc3cccc(C)c3)o2)cc1OC | 3.27%
CN(C)c1nc(Oc2ccc(N)cc2)nc(N(C)C)n1 | 3.67%
Cc1cccc(OCC(=O)NCC(=O)N/N=C/c2ccccc2)c1 | 4.9%
O=S(=O)(c1ccc2c(c1)OCCO2)N1CCC(n2nnc3cc(F)ccc32)CC1 | -38.7%
Cc1cc(S(=O)(=O)NCc2ccc(S(N)(=O)=O)cc2)c(C)s1 | -5.12%
CCSc1ccc([C@@H]2[C@H]3C(=O)N(C)C(=O)[C@H]3[C@]3(C(=O)OC)CCCCN23)cc1.O=C(O)C(F)(F)F | 5.34%
